Consider 42 compounds from the supplement of paper PMC4723716.

± gives the uncertainty stated by the source. In all, about 9,900 compounds were measured (“viability index relative to DMSO control”: median about 1, lowest 2% from about 0.85 on). The list shows a part of the results.

The test relates to Plasmodium falciparum NF54 stage V gametocytes. Description: viability index relative to DMSO control (fraction); higher = less gametocyte killing. The conditions noted are these: 2.5 µM, library set: Broad Institute DOS, incubation time: 72 h. As to the method:
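Broad DOS informer set and blood-stage-active DOS compounds screened in duplicate at 2.5 µM against P. falciparum NF54 stage V gametocytes with the serum-free one-step SaLSSA (1536-well): 72 h at 37 °C under low oxygen, then saponin lysis and MitoTracker Red CMXRos staining, with high-content imaging. Viability index = viable-object count divided by the plate mean of DMSO wells (0 = killed, about 1 = inactive).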
On to `C[C@@H]1CN([C@H](C)CO)C(=O)c2ccccc2-c2ccccc2CO[C@H]1CN(C)C(=O)c1cc(Cl)cc(Cl)c1`, for which the viability index was 1.03 ± 0.14.

On to `COc1ccc(S(=O)(=O)Nc2ccc3c(c2)[C@@H]2C[C@H](CC(=O)N(C)C)O[C@H](CO)[C@@H]2O3)cc1`, for which the viability index was determined as 1.06 ± 0.11.

On to `CNC(=O)C[C@@H]1CC[C@@H]2[C@@H](COc3ccc(NC(=O)c4ccccc4F)cc3C(=O)N2C)O1`, for which the viability index turned out to be 1.13 ± 0.083.

As to `O=C(C1CCCCC1)N1CC2(C1)[C@H](c1ccccc1)[C@@H](CO)N2C(=O)c1cccnc1`, the viability index was 1.17 ± 0.041.

In turn, `CCc1cnc(N2[C@H](C#N)[C@H](c3ccc(-c4cccc(F)c4)cc3)[C@@H]2CO)s1` showed a viability index of 1.07 ± 0.027.

For the compound `CCS(=O)(=O)Nc1ccc2c(c1)C(=O)N(C)[C@@H]1CC[C@H](CC(=O)NCCCN3CCOCC3)O[C@@H]1CO2`, the viability index is 1.08 ± 0.18.

For `O=C(c1ccc2c(c1)OCO2)N1C[C@@H]2[C@H](c3ccccc31)[C@H](CO)N2Cc1cccnc1`, the viability index was determined as 0.951 ± 0.031.

Compound `C[C@@H]1CN([C@@H](C)CO)C(=O)c2cc(NC(=O)Nc3cccc4ccccc34)ccc2O[C@@H](C)CCCCO[C@@H]1CN(C)Cc1ccc(C(F)(F)F)cc1` showed a viability index of 1.02 ± 0.03.

For the compound `OC[C@H]1[C@@H](c2ccc(C#CC3(O)CCCC3)cc2)[C@@H]2CN(Cc3cncnc3)CCCCN12`, the viability index was found to be 1.02 ± 0.099.

Compound `C[C@H]1CN([C@@H](C)CO)C(=O)c2cc(NC(=O)Cn3cnnn3)ccc2O[C@H]1CN(C)Cc1ccc(C(=O)Nc2ccccc2N)cc1` returned a viability index of 1.05 ± 0.12.

Compound `CC(C)[C@H]1C(=O)N[C@H](c2cccc(Cl)c2)C/C=C/C[C@@H](C)Oc2ccccc2C(=O)N1C.CC(C)[C@H]1C(=O)N[C@H](c2cccc(Cl)c2)C/C=C\C[C@@H](C)Oc2ccccc2C(=O)N1C` registered a viability index of 0.909 ± 0.08.

Regarding `C[C@@H]1CN([C@H](C)CO)C(=O)c2c(c3ccccc3n2C)-c2ccccc2CO[C@H]1CN(C)Cc1cccc(C(F)(F)F)c1`, the viability index turned out to be 0.914 ± 0.14.

For `C[C@H](CO)N1C[C@H](C)[C@@H](CN(C)C(=O)CN2CCOCC2)Oc2ncc(-c3ccncc3)cc2C1=O`, the viability index turned out to be 1.02 ± 0.021.

For the compound `COc1cccc(NC(=O)Nc2ccc3c(c2)C(=O)N(C)C[C@H](OC)[C@H](C)CN[C@@H](C)CO3)c1`, the viability index was found to be 1 ± 0.026.

Take `CS(=O)(=O)N1[C@H](C#N)[C@@H](c2ccc(-c3ccccc3F)cc2)[C@H]1CO`: the viability index worked out at 1.08 ± 0.072.

In turn, `O=C(C[C@@H]1CC[C@@H](NC(=O)C2CC2)[C@@H](CO)O1)Nc1ccccc1` came in with a viability index of 0.97 ± 0.1.

The compound `COc1ccc([C@H]2C/C=C/C[C@H](C)Oc3ccccc3C(=O)N(C)[C@H](C(C)C)C(=O)N2)c(OC)c1.COc1ccc([C@H]2C/C=C\C[C@H](C)Oc3ccccc3C(=O)N(C)[C@H](C(C)C)C(=O)N2)c(OC)c1` yielded a viability index of 1 ± 0.043.

The compound `CO[C@@H]1CN(C)C(=O)c2cc(NC(=O)NC(C)C)ccc2OC[C@H](C)N(Cc2ccccc2)C[C@@H]1C` registered a viability index of 1.04 ± 0.052.

`O=C(c1cnccn1)N1C[C@@H]2N[C@H](C1)[C@@H]2c1ccc(/C=C/c2ccccc2)cc1`: the viability index came out at 1.05 ± 0.026.

The compound `Cc1noc(C)c1NC(=O)N1C[C@H](O)COC[C@@H]2O[C@@H](CC(=O)NCC3CC3)CC[C@H]21` had a viability index of 1.03 ± 0.029.

For `O=S(=O)(c1ccccc1F)N1[C@@H]2CNC[C@H]1[C@@H]2c1ccc(/C=C/c2ccccc2)cc1`, the viability index amounted to 1.02 ± 0.099.

`Cc1noc(C)c1S(=O)(=O)Nc1ccc2c(c1)C(=O)N([C@H](C)CO)C[C@H](C)[C@@H](CN(C)C(=O)Nc1cccc3ccccc13)OCCCC[C@H](C)O2` returned a viability index of 0.9 ± 0.043.

`COc1ccccc1C#Cc1ccc2c(c1)[C@H]1NCC[C@H]1[C@@H](CO)N2` showed a viability index of 1.07 ± 0.016.

`O=C(Nc1ccccc1)N1C[C@@H]2N[C@H](C1)[C@@H]2c1ccc(-c2ccccc2F)cc1` had a viability index of 1.03 ± 0.08.

`COc1ccc(S(=O)(=O)Nc2ccc3c(c2)OC[C@H](C)NC[C@H](C)[C@@H](OC)CN(C)C3=O)cc1` had a viability index of 1.05 ± 0.098.

Consider `CC(C)[C@H]1C(=O)N[C@@H](c2cccc(Cl)c2)C/C=C/C[C@H](C)Oc2ccccc2C(=O)N1C.CC(C)[C@H]1C(=O)N[C@@H](c2cccc(Cl)c2)C/C=C\C[C@H](C)Oc2ccccc2C(=O)N1C`, for which the viability index turned out to be 0.988 ± 0.047.

For `CCC(=O)N1C[C@@H](O)COC[C@@H]2O[C@@H](CC(=O)NC)CC[C@H]21`, the viability index was 0.941 ± 0.064.

As for `CC(C)NC(=O)N(C)C[C@@H]1Oc2ccc(NC(=O)Cc3ccccc3)cc2CC(=O)N([C@@H](C)CO)C[C@H]1C`, the viability index is 0.949 ± 0.16.

In turn, `COc1ccc(NC(=O)N(C)C[C@@H]2OCCCC[C@@H](C)Oc3ccc(NC(=O)c4ccncc4)cc3C(=O)N([C@H](C)CO)C[C@@H]2C)cc1` yielded a viability index of 1.085 ± 0.0042.

In turn, `COc1ccc(CN2C[C@]3(CN(C3)C(C)=O)c3c([C@H]2CO)n(C)c2cc(OC)ccc32)cc1` displayed a viability index of 1.12 ± 0.071.

Consider `O=C(Nc1cccc(F)c1)N1C[C@H]2[C@@H](c3ccccc31)[C@H](CO)N2C(=O)Cc1ccccn1`, for which the viability index is 0.989 ± 0.046.

`COc1ccccc1CN1C[C@@H](C)[C@H](OC)CN(C)C(=O)c2cc(NC(=O)Nc3ccccc3OC)ccc2OC[C@H]1C` gave a viability index of 1.02 ± 0.091.

In turn, `O=C(c1cnccn1)N1CC(=O)N2[C@H](C1)[C@@H](c1ccc(-c3cccc(F)c3)cc1)[C@@H]2CO` yielded a viability index of 1.02 ± 0.012.

For the compound `CO[C@@H]1CN(C)C(=O)c2ccc(NS(C)(=O)=O)cc2OC[C@@H](C)N(CC2CC2)C[C@H]1C`, the viability index came out at 1.14 ± 0.044.

`COc1cccc(CNC(=O)C[C@@H]2CC[C@H]3[C@H](COc4ccc(NS(=O)(=O)c5ccccc5F)cc4C(=O)N3C)O2)c1` yielded a viability index of 0.933 ± 0.042.

For the compound `CNC[C@H]1Oc2ccc(NS(=O)(=O)c3ccc(OC)cc3)cc2C(=O)N([C@H](C)CO)C[C@@H]1C`, the viability index stood at 0.998 ± 0.062.

Turning to `COc1ccc2c3c([nH]c2c1)[C@@H](CO)N(C[C@]31CN(C1)S(C)(=O)=O)C(=O)C1CCCCC1`, the viability index was 1.03 ± 0.032.

As to `O=C(c1cnccn1)N1CC(=O)N2[C@H](CO)[C@@H](c3ccc(/C=C/c4ccccc4)cc3)[C@H]2C1`, the viability index was determined as 1.04 ± 0.07.

On to `CC(C)NC(=O)NCC[C@@H]1CC[C@H](NS(=O)(=O)c2ccc(Oc3ccccc3)cc2)[C@H](CO)O1`, for which the viability index amounted to 1.13 ± 0.038.

Compound `CN(C)C(=O)c1cccc(-c2cccc(-c3nc(C(=O)N4CCCCC4)cc4c3[C@@H](CCO)N([S@](=O)C(C)(C)C)C4)c2)c1` came in with a viability index of 0.984 ± 0.033.

In the case of `O=C(Cc1ccncc1)N1CC(=O)N2[C@@H](CO)[C@H](c3ccc(Br)cc3)[C@@H]2C1`, the viability index is 1.03 ± 0.095.

`C[C@@H]1CN([C@H](C)CO)C(=O)c2cc(NC(=O)CCCN(C)C)ccc2O[C@H]1CN(C)Cc1ccc(Cl)c(Cl)c1`: the viability index came to 1.05 ± 0.023.
